Publication PMC12136788
The other results are listed elsewhere or left out.

T1: UNK ZnF1-3 (human, UniProt Q9C0B0 31-174)
T1 sequence: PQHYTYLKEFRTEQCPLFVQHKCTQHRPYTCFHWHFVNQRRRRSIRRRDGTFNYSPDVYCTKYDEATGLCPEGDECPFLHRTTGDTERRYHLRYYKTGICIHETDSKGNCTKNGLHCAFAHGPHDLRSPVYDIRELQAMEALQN

B1: 35792141_35795328_1781_3pUTR_ENSMUSG00000020590_ENSMUST00000048519|mouse|control|control (ssRNA)
RNA: GGGAGUUCUACAGUCCGACGAUCUUAUGCUUCCUGUAGGAGACCCAUUAAAAGAUUCUCCAUCCCCAUCAUCUGAUCCUCUGAAACUAGGAUCUUUUAACAUGUCAAGCUCAGCUAGCAUUCGCACAUAGAGCGCAUUCUGCCCAACAGAGGAUUGAGCAUCA
B2: 56733260_56733380_582_CDS_ENSMUSG00000071054_ENSMUST00000095224|mouse|control|control (ssRNA)
RNA: GGGAGUUCUACAGUCCGACGAUCGGCCUCCUCCUCUUCCUCCACACAGUCUGCCACGCUGCCAUUGUCAAUGUCAGCCUCAUCCAGCACACUGAUGUCCAUCAUAUCCAUGUCUUGCAGGUUCUCCAGGCUGGUCUCCACAUCCAACAGAGGAUUGAGCAUCA
B3: chr17:5336369:5336370:-_ENSG00000108561_ENST00000225698|hu_mus|FALSE|FALSE (ssRNA)
RNA: GGGAGUUCUACAGUCCGACGAUCAAGGCCCGCAGUCUCUGAGUUCUACUGGUUCUUGACAAAGCUUUUGAGGUCCUCAAGAAAGGUGAUAUAUUCCUGGUGCUCCAGGGCUGUGCUGAGCUCCACCAACUCAUCCGCAAAAGUCAACAGAGGAUUGAGCAUCA
B4: chr19:16212804:16212805:+_ENSG00000167460_ENST00000300933|hu_mus|hu_hu_hu_mus_False|48_78 (ssRNA)
RNA: GGGAGUUCUACAGUCCGACGAUCAACAAUUCUGGAGUGAAGGAAAGAUGUAACAUGCAAUUAAUUAAAAGCUCAGUCAGAAGGCACGUGGGUAAUUAUGAUCACCCCAGCAUUCUCGCUUGGAAUGCUUAAAGACAAUCUGUUCAACAGAGGAUUGAGCAUCA
B5: 62764597_62776314_962_3pUTR_ENSMUSG00000028358_ENSMUST00000107415|mouse|control|control (ssRNA)
RNA: GGGAGUUCUACAGUCCGACGAUCUGGAGAUGGGGUGACCUCUGGAUGGGAACACUCAGAACCCGUGUCUGGAUCUUCCGGUGGCUCCCACCCGGGGGCGGUACUGAUGGGGGCAUGUAAGGCCACGUGCUCCUGGUAGGGCGUCAACAGAGGAUUGAGCAUCA
B6: chr1:23884524:23884525:-_ENSG00000117318_ENST00000374561|perfect_dup|FALSE|FALSE (ssRNA)
RNA: GGGAGUUCUACAGUCCGACGAUCUUUAAUAUACAUCACAUGAUUACAGAAAGUCACCUUCCUGUAAAAAAGGUACAAAAGCUAUAUACUCUAUUAUAGAGUUCAUAAUCAGGGCAGCAGAGCUUUUCUCCAAGGAAACCAGAACAACAGAGGAUUGAGCAUCA
B7: chr4:99997899:99997900:-_ENSG00000197894_ENST00000296412|hu_hu|motif|central (ssRNA)
RNA: GGGAGUUCUACAGUCCGACGAUCAGGCUCCAACUUGGCAGUGUUCACAGCAGCACCAUAACCGGUUGAAAUGCCACAACCGGGAAGGCAGACUUUAUCCAAAGGUGCUAAAGGAUCUAUUUUAGCAACAGAGAUAUCAGCCACCAACAGAGGAUUGAGCAUCA
B8: chr21:33032072:33032073:+_ENSG00000142168_ENST00000270142|hu_mus|FALSE|FALSE (ssRNA)
RNA: GGGAGUUCUACAGUCCGACGAUCUGCACCGGACCGUCGCCCUUCAGCACGCACACCGCUUUCAUCGCCAUGCUUCCCCGGGAGACGCGCGGCGGCCUCCUCCGGAGGGACCAGAGAGAGCAAGACGAGAAGCCGACGGACGGACAACAGAGGAUUGAGCAUCA
B9: chr8:81896215:81896216:-_ENSMUSG00000031681_ENSMUST00000066091|mus_mus|FALSE|FALSE (ssRNA)
RNA: GGGAGUUCUACAGUCCGACGAUCAGAUUUCAGUAUAUUUACAUAGAUUCUCCUUAGCUUCUUGGUCUGCGGUUUGGAAAGGUAGAAAAUACUGUCCCUCCUGUUCCAGCGAGGAUCCCAGUUAGCGCCGGCUCGGCGGCGCGCCAACAGAGGAUUGAGCAUCA
B10: chr16:94690093:94690094:+_ENSMUSG00000040785_ENSMUST00000117648|mus_hu|mus_mus_mus_hu_True|8_108 (ssRNA)
RNA: GGGAGUUCUACAGUCCGACGAUCGGGGACUCCUGUGGGACACACAGCCUCGAUUCCAGGGGGAAAAAGUCUUAGUCGAUACUAAUUAAAAAGUGUUAAUGAUUUUUGAAAAUCAGAUUACAUCUAUUUGAAUCAUAAAGCAAACAACAGAGGAUUGAGCAUCA
B11: 119122325_119122445_1707_CDS_ENSG00000182197_ENST00000378204|human|control|control (ssRNA)
RNA: GGGAGUUCUACAGUCCGACGAUCCUCAUACUCGGUGUUGUCUCUGUCACAGCGAGAAUCCUUGUGCUUUUGCCAGUCUUUGCCAUGCUUGCAGGUGGUGAGGAGCACAACGUCCUCCCCGUUAUGGACGUGAUAUAAGGCAUUCAACAGAGGAUUGAGCAUCA
B12: chr3:9412954:9412955:+_ENSG00000134077_ENST00000452837|hu_mus|hu_hu_hu_mus_False|1_18 (ssRNA)
RNA: GGGAGUUCUACAGUCCGACGAUCGGUUGAUAUCUCUUCUUUGAUGGCUGGAUUUUCAUAAUAGUCCAAGAUAUGUGAAUCUGAAGUGCUGCUGGCAUGCUUUUUCUUACCAUCUUUCUGAUCGAUUUUGUCUCCUUGUCCAUUCAACAGAGGAUUGAGCAUCA
B13: 30667270_30713170_122_5pUTR_ENSMUSG00000062202_ENSMUST00000168787|mouse|control|control (ssRNA)
RNA: GGGAGUUCUACAGUCCGACGAUCGGCUGUUACUCAUCCUGUGGAACAGAUGAUAGUCACUGGCCCCGACGAUGUCCCUCAGCGACCUAGAAGCCGCCACACACGUCUCUUCCGCCAGCAGCGACCCCGCCUCGUGGCCACCGCCAACAGAGGAUUGAGCAUCA
B14: 36945257_36945377_3780_CDS_ENSMUSG00000029190_ENSMUST00000132383|mouse|control|control (ssRNA)
RNA: GGGAGUUCUACAGUCCGACGAUCUACUACUCUGCAGGGUCAGAGAUGUGUUCGGGAGAAGAGCUCCUCUCUGCUGGGGCCCACCCACUCUCCGCCGGCUUCGGAGCCUGUGUCGCCCGUGUCAGAGCUGGCACUGGAACACAUCAACAGAGGAUUGAGCAUCA
B15: chr1:36558744:36558745:+_ENSG00000116863_ENST00000373178|hu_hu|FALSE|FALSE (ssRNA)
RNA: GGGAGUUCUACAGUCCGACGAUCAAUGGUGUCUGUGUCCCCACCAAGUGAGAUGGAAUAAAUGAGAGUCCUUUGGAGGCUAUUGAAGGCAGAAGGGAUCUCAGGGUCUGGCUCCAUGCAGCGUAGGAAGCAGUAGAUGGCGGUCAACAGAGGAUUGAGCAUCA
B16: 104849607_104851902_698_CDS_ENSMUSG00000021710_ENSMUST00000109315|mouse|control|control (ssRNA)
RNA: GGGAGUUCUACAGUCCGACGAUCAAUGCAUAGCUCACUCAUUCUCUUCUUCAUUGAUUUGAUUUCAUUUUUUACGUGUUCUGGAAGAUGGAGUCCAUUCCUUUUCCCCAUUUUAAUUGAUUUUUCCAAGUAUCGCCUGGCCUCCAACAGAGGAUUGAGCAUCA
B17: chr3:148802587:148802588:-_ENSG00000071794_ENST00000310053|hu_mus|hu_hu_hu_mus_False|38_108 (ssRNA)
RNA: GGGAGUUCUACAGUCCGACGAUCUCCAACCACAUGACCUCUCAUAGUUCCAAAUAAAACCAAAUCUUGCUCUUCAUCACUCGUUAGGAAGUCAUCUGGAGGGAUAAUGUCUUGGAAUUCAAAAUGUGGCAAGAAAGUUGAGUACAACAGAGGAUUGAGCAUCA
B18: chr5:68498363:68498364:+_ENSG00000153044_ENST00000283006|hu_hu|FALSE|FALSE (ssRNA)
RNA: GGGAGUUCUACAGUCCGACGAUCUUUUUCCUCUAAAUCCCAAGAUUCCUGCUGUGAUUUCAUUAUUAAUUUAUUUAGCUCUAAUAGGUGUUUCAUGUUAUCCAUGAGCACACUAGACUGUCUGCUAAUUUUCUCCAGGUUUUUCAACAGAGGAUUGAGCAUCA
B19: chr17:39847130:39847131:+_ENSG00000173812_ENST00000469257|hu_mus|FALSE|FALSE (ssRNA)
RNA: GGGAGUUCUACAGUCCGACGAUCAUUACAUUAUACAAGCUGUGAGGUUUUUAAACUUGUGACAAGGGACAGAAGGGAAAUUCUACUCAUUGCAAGGAAAUCCUCACUUAAGCUUCAGAGAGCCACAAGCACUUAAAACCCAUGCAACAGAGGAUUGAGCAUCA
B20: 42714126_42714758_5631_CDS_ENSG00000103994_ENST00000263805|human|control|control (ssRNA)
RNA: GGGAGUUCUACAGUCCGACGAUCGAUGGUCAUACACAUAAUCAUGUCUUUGUGUCCUCCAUAAACUUGUAAUCGAUCAUGAGACUGUAAUUCAUAGACACGAACAAAUUUAUCCAGGCAAGCAGUCACCAUCACUUUUCCUAGCAACAGAGGAUUGAGCAUCA
B21: chr17:88379672:88379673:+_ENSMUSG00000005370_ENSMUST00000005503|mus_mus|motif|central (ssRNA)
RNA: GGGAGUUCUACAGUCCGACGAUCUCCCUUUUGGGCUUCCUUUGACUUUGAACCUGUAUAUGGCUUUAACAUCCUUUUGCGGACCCAGCCCCUUGUUGGGCUGUCAUCAAAGAACUGUACAUGAACACGGACAGAUUUCCCUUUCAACAGAGGAUUGAGCAUCA
B22: chr18:43795804:43795805:+_ENSG00000152242_ENST00000321319|hu_mus|FALSE|FALSE (ssRNA)
RNA: GGGAGUUCUACAGUCCGACGAUCCUCCUCCAUCUUCAUCUCAGAAUUCCAAAUUAAAUCAUGGAACGGAGUCUAGGAAACGAUAUCAAAGGUGCAACAGGGAAGCAGCCUGCGCCCCGCCGUCCGCGCCUCCUCGCCGGCCCCCAACAGAGGAUUGAGCAUCA

Each binder was assayed against T1, UNK ZnF1-3 (assay: nsRBNS (natural sequence RNA bind-n-seq); RBNS binding buffer (assumed for nsRBNS): 25 mM Tris pH 7.5, 150 mM KCl, 3 mM MgCl2, 0.01% Triton X-100, 500 ug/ml BSA, 20 U/ml SUPERase-In, 4 C; UNK is unkempt and MSI1 is Musashi-1; names of the RNAs are library labels; protein concentration not given here; high values mean tight binding).

In order of falling binding signal:
1. B22  1.55 enrichment R
2. B7  1.53 enrichment R
3. B9  1.51 enrichment R
4. B15  1.4 enrichment R
5. B19  1.3 enrichment R
6. B4  1.27 enrichment R
7. B17  1.22 enrichment R
8. B3  1.2 enrichment R
9. B1  1.16 enrichment R
10. B20  1.12 enrichment R
11. B8  1.03 enrichment R
12. B10  0.94 enrichment R
13. B6  0.848 enrichment R
14. B2  0.774 enrichment R
15. B14  0.674 enrichment R
16. B16  0.654 enrichment R
17. B13  0.624 enrichment R
18. B18  0.594 enrichment R
19. B5  0.582 enrichment R
20. B21  0.538 enrichment R
21. B11  0.473 enrichment R
22. B12  0.404 enrichment R
